Laboratory results: paper PMC9911399, “Two distinct binding modes provide the RNA-binding protein RbFox with extraordinary sequence specificity”
Positions count from the first letter of the chain named. The list shows a part of the results.

T1: RBFOX1 RRM (Homo sapiens, UniProt Q9NWB1 109-208)
T1 sequence: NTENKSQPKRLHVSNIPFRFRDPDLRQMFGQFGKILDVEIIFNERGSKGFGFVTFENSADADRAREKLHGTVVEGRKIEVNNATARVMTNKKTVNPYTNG

B1: AUCAGAA (DNA:RNA)
RNA: GGGAGACCGGAAUUCAGAUUGUCCAUCAGAAUUAAAUCCCGUCGUAGCCACCA
DNA 1: CAATCTGAATTCCGGTCTCCC
DNA 2: TGGTGGCTACGACGGGATT
B2: GGCUUGA (DNA:RNA)
RNA: B1 RNA with A25G, U26G, A28U, G29U, A30G
DNA 1: CAATCTGAATTCCGGTCTCCC
DNA 2: TGGTGGCTACGACGGGATT
B3: CGGGCCC (DNA:RNA)
RNA: GGGAGACCGGAAUUCAGAUUGUCCCGGGCCCUUAAAUCCCGUCGUAGCCACCA
DNA 1: CAATCTGAATTCCGGTCTCCC
DNA 2: TGGTGGCTACGACGGGATT
B4: UACGGUU (DNA:RNA)
RNA: B1 RNA with A25U, U26A, A28G, A30U, A31U
DNA 1: CAATCTGAATTCCGGTCTCCC
DNA 2: TGGTGGCTACGACGGGATT
B5: GUAGGUU (DNA:RNA)
RNA: B1 RNA with A25G, C27A, A28G, A30U, A31U
DNA 1: CAATCTGAATTCCGGTCTCCC
DNA 2: TGGTGGCTACGACGGGATT
B6: CUGCCAC (DNA:RNA)
RNA: B3 RNA with G26U, G28C, C30A
DNA 1: CAATCTGAATTCCGGTCTCCC
DNA 2: TGGTGGCTACGACGGGATT
B7: UCUCAAG (DNA:RNA)
RNA: B1 RNA with A25U, U26C, C27U, A28C, G29A, A31G
DNA 1: CAATCTGAATTCCGGTCTCCC
DNA 2: TGGTGGCTACGACGGGATT
B8: UCGAGGU (DNA:RNA)
RNA: B1 RNA with A25U, U26C, C27G, A30G, A31U
DNA 1: CAATCTGAATTCCGGTCTCCC
DNA 2: TGGTGGCTACGACGGGATT
B9: GCAAACA (DNA:RNA)
RNA: B1 RNA with A25G, U26C, C27A, G29A, A30C
DNA 1: CAATCTGAATTCCGGTCTCCC
DNA 2: TGGTGGCTACGACGGGATT
B10: UCUCGUA (DNA:RNA)
RNA: B1 RNA with A25U, U26C, C27U, A28C, A30U
DNA 1: CAATCTGAATTCCGGTCTCCC
DNA 2: TGGTGGCTACGACGGGATT
B11: CGCAUGG (DNA:RNA)
RNA: B1 RNA with A25C, U26G, G29U, A30G, A31G
DNA 1: CAATCTGAATTCCGGTCTCCC
DNA 2: TGGTGGCTACGACGGGATT
B12: AGGCGUC (DNA:RNA)
RNA: B3 RNA with C25A, G28C, C29G, C30U
DNA 1: CAATCTGAATTCCGGTCTCCC
DNA 2: TGGTGGCTACGACGGGATT
B13: AAACCGU (DNA:RNA)
RNA: B1 RNA with U26A, C27A, A28C, G29C, A30G, A31U
DNA 1: CAATCTGAATTCCGGTCTCCC
DNA 2: TGGTGGCTACGACGGGATT
B14: UCCGCGG (DNA:RNA)
RNA: B3 RNA with C25U, G26C, G27C, C30G, C31G
DNA 1: CAATCTGAATTCCGGTCTCCC
DNA 2: TGGTGGCTACGACGGGATT
B15: UGUUGGC (DNA:RNA)
RNA: B3 RNA with C25U, G27U, G28U, C29G, C30G
DNA 1: CAATCTGAATTCCGGTCTCCC
DNA 2: TGGTGGCTACGACGGGATT
B16: ACAAAAG (DNA:RNA)
RNA: B1 RNA with U26C, C27A, G29A, A31G
DNA 1: CAATCTGAATTCCGGTCTCCC
DNA 2: TGGTGGCTACGACGGGATT
B17: AUUGAGC (DNA:RNA)
RNA: B1 RNA with C27U, A28G, G29A, A30G, A31C
DNA 1: CAATCTGAATTCCGGTCTCCC
DNA 2: TGGTGGCTACGACGGGATT
B18: AGUGCGA (DNA:RNA)
RNA: B3 RNA with C25A, G27U, C30G, C31A
DNA 1: CAATCTGAATTCCGGTCTCCC
DNA 2: TGGTGGCTACGACGGGATT
B19: UACCACU (DNA:RNA)
RNA: B1 RNA with A25U, U26A, A28C, G29A, A30C, A31U
DNA 1: CAATCTGAATTCCGGTCTCCC
DNA 2: TGGTGGCTACGACGGGATT
B20: GCCCUUG (DNA:RNA)
RNA: B1 RNA with A25G, U26C, A28C, G29U, A30U, A31G
DNA 1: CAATCTGAATTCCGGTCTCCC
DNA 2: TGGTGGCTACGACGGGATT

Each binder was assayed against T1, RBFOX1 RRM (assay: EMSA; HiTS-Eq, 1 nM pool, 10 min; buffer printed only for the single-RNA assays: 10 mM Tris pH 7.5, 150 mM NaCl, 3.4 mM EDTA, 0.001% NP-40, 30 C). Settings: tags: His6 N-terminal (pET28a); label: 5' 32P.
In short: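 These values rest on relative association constants, computed from read-count changes of each RNA species versus the control reaction and normalised to the cognate motif. Reads came from free RNA recovered by 8% native PAGE after purified RbFox RRM (wild type or mutant) at increasing concentrations was equilibrated for 10 min in 50 µL with 1 nM of a 5′-radiolabelled pool with 7 randomized nucleotides and DNA-annealed flanks.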
B1 was tested, and the binding signal was 0.00549 KA relative to UGCAUGU.
With B2 the binding signal was 0.0309 KA relative to UGCAUGU.
For B3, the binding signal was 0.0176 KA relative to UGCAUGU.
In the case of B4, the binding signal is reported as 0.0111 KA relative to UGCAUGU.
B5 was tested, and the binding signal was 0.0129 KA relative to UGCAUGU.
B6 was tested, and the binding signal was 0.0115 KA relative to UGCAUGU.
With B7 the binding signal was 0.00583 KA relative to UGCAUGU.
In the case of B8, the binding signal is reported as 0.0144 KA relative to UGCAUGU.
In the case of B9, the binding signal is reported as 0.00106 KA relative to UGCAUGU.
B10 was tested, and the binding signal was 0.00944 KA relative to UGCAUGU.
For B11, the binding signal was 0.582 KA relative to UGCAUGU.
In the case of B12, the binding signal is reported as 0.0131 KA relative to UGCAUGU.
For B13, the binding signal was 0.00107 KA relative to UGCAUGU.
B14 was tested, and the binding signal was 0.0131 KA relative to UGCAUGU.
In the case of B15, the binding signal is reported as 0.0228 KA relative to UGCAUGU.
In the case of B16, the binding signal is reported as 0.00155 KA relative to UGCAUGU.
For B17, the binding signal was 0.0114 KA relative to UGCAUGU.
B18 was tested, and the binding signal was 0.0129 KA relative to UGCAUGU.
B19 was tested, and the binding signal was 0.00168 KA relative to UGCAUGU.
With B20 the binding signal was 0.0146 KA relative to UGCAUGU.
